The record followed here is PubChem BioAssay AID360 (National Center for Advancing Translational Sciences (NCATS), 2006).

Among all 48,000 compounds or so, about 550 (1.1%) were called active. Not shown: some 4% with an inconclusive outcome. Cut-off read from the data, not from the text of the source: active = potency below about 15 µM; inconclusive = mostly about 16 µM to 33 µM; inactive = weaker than that. Some of the results follow.
Potency is the fitted concentration of half-maximal effect.

In the assay the target is Lysosomal acid glucosylceramidase (Homo sapiens) (UniProt P04062). The assay is described as follows: Glucocerebrosidase.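 Note: the screen sought inhibitors.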 As to conditions: purified enzyme, resorufin glucoside fluorescence (screen aimed at inhibitors), 20 min. In short, it runs like this: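 Normal human glucocerebrosidase (0.2 nM final) was assayed with resorufin β-D-glucopyranoside (30 uM final) in 50mM citric acid/KH2PO4, 10mM sodium taurocholate, 0.01% tween-20, pH 5.9. Compounds were titrated; fluorescence (Ex 548, Em 600) read after 20 min at RT.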
UniProt P04062, sequence (P04062 whole entry, looked up): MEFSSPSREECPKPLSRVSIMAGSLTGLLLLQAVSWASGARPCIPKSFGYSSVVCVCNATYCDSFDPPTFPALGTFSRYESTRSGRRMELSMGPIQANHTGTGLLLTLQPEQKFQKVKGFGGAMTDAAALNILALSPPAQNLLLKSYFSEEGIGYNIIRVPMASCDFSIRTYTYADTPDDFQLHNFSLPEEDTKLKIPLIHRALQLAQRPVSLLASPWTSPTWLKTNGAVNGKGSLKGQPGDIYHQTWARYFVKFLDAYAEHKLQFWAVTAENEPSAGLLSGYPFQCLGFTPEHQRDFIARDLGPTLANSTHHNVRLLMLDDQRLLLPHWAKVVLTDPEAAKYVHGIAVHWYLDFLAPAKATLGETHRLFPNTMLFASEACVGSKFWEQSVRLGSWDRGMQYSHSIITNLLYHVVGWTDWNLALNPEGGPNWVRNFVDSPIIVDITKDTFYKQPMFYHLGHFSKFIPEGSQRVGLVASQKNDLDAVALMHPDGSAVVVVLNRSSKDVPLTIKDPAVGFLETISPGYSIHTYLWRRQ
As to `Cc1cccc(C)c1-n1nnnc1SCSc1nnnn1-c1c(C)cccc1C`, the Potency is inactive: > 76.9 µM.

For the molecule `Cn1c(=O)n(Cc2ccccc2F)c2ccccc21`, the Potency is inactive: > 76.9 µM.

`COc1ccc(CNC(=O)C2CCN(c3nccs3)CC2)cc1`: the Potency is inactive: > 76.9 µM.

Regarding `COc1ccc(S(=O)(=O)NC(CC(=O)NCc2ccco2)c2ccco2)cc1` (centres undefined), the Potency was inactive: > 76.9 µM.

For the molecule `COCCNC(=O)c1ccccc1NC(=O)CN(c1ccc2c(c1)OCO2)S(C)(=O)=O`, the Potency was inactive: > 76.9 µM.

On to `Cc1c(CNC(=O)c2nn3c(c2Cl)NC(c2ccccc2)CC3C(F)(F)F)cnn1C` (centres undefined), for which the Potency is inactive: > 76.9 µM.

For `Cc1cc(C(=O)OCC(=O)c2ccc(Br)s2)c(C)o1`, the Potency was inactive: > 76.9 µM.

Take `O=C(COc1ccccc1)N(Cc1cc2ccccc2[nH]c1=O)CC1CCCO1` (centres undefined): the Potency was inactive: > 76.9 µM.

In the case of `Cc1cc(C)c2c(n1)nn1c(N3CCN(c4cccc(Cl)c4)CC3)cc(C)nc21`, the Potency is inactive: > 76.9 µM.

Regarding `O=C1c2ccccc2C(=O)N1CC(O)COCc1ccccc1` (centres undefined), the Potency is inactive: > 76.9 µM.

`Cc1ccc2nc(NC(=O)c3cccs3)sc2c1`: the Potency was inactive: > 76.9 µM.

For `O=C(NCCCN1CCOCC1)c1ccc(Br)s1`, the Potency was inactive: > 76.9 µM.

For `Clc1cccc(-c2nnc(SCc3nc4ccccc4[nH]3)n2Cc2ccco2)c1`, the Potency is inactive: > 76.9 µM.

With `CCOC(=O)c1c(N)sc2c1C1CCN2CC1`, the Potency was inactive: > 76.9 µM.

As for `COCCN1C(=O)C(=O)/C(=C(/O)c2ccc(OCC(C)C)cc2)C1c1cccnc1` (centres undefined), the Potency was inactive: > 76.9 µM.

Take `COC(=O)c1cc(OC)c(OC)cc1NC(=O)c1cc(C)on1`: the Potency was inactive: > 76.9 µM.

For `O=S(=O)(NC1CCCC1)c1ccc(S(=O)(=O)N2CCc3ccccc32)cc1`, the Potency was inactive: > 76.9 µM.

As for `O=C(NC(NC1CCS(=O)(=O)C1)C(=O)c1cccs1)c1ccccc1` (centres undefined), the Potency was inactive: > 76.9 µM.

For the molecule `COc1ccc(S(=O)(=O)N(CC(=O)N2CCN(C)CC2)c2ccccc2)cc1OC`, the Potency was inactive: > 76.9 µM.

For `Cc1ccc(SCc2nc(-c3ccccn3)no2)cc1`, the Potency was inactive: > 76.9 µM.

On to `COc1ccc(C2/C(=C(\O)c3ccc4c(c3)OCCO4)C(=O)C(=O)N2CCCN(C)C)c(OC)c1` (centres undefined), for which the Potency was inactive: > 76.9 µM.

As to `CCCS(=O)(=O)N1CCCC(C(=O)N2CCN(C(=O)OCC)CC2)C1` (centres undefined), the Potency was inactive: > 76.9 µM.

With `CC(=O)Nc1ccc(NC(=O)Cn2c(CC(=O)N3CCCC3)nc3ccccc32)cc1`, the Potency was inactive: > 76.9 µM.

On to `COc1c(C)cccc1C(=O)Nc1ccc(CN2CCOCC2)cc1`, for which the Potency was inactive: > 76.9 µM.

For `S=c1[nH]nc(Cc2c[nH]c3ccccc23)o1`, the Potency is inactive: > 76.9 µM.

`COCc1nnc(NC(=O)CCC2CCCCC2)s1`: the Potency was inactive: > 76.9 µM.

Turning to `O=C(O)CCCC(=O)Nc1nc(-c2ccc(F)cc2)cs1`, the Potency is inactive: > 76.9 µM.

`O=C1c2oc3ccc(Cl)cc3c(=O)c2C(c2cccnc2)N1Cc1ccco1` (centres undefined): the Potency is inactive: > 76.9 µM.

For `Nc1ccc(-c2ccc(N)cc2C(F)(F)F)c(C(F)(F)F)c1`, the Potency is inactive: > 76.9 µM.

For `O=C(c1ccco1)N1CCN(C(=O)N2c3ccccc3Sc3ccccc32)CC1`, the Potency was inactive: > 76.9 µM.

With `CC1(C)CNC(=O)c2sc(NC(=O)CN3CCOCC3)nc2C1`, the Potency is inactive: > 76.9 µM.

With `CCOCCCNc1nc2c([nH]1)c(=O)n(C)c(=O)n2C`, the Potency was inactive: > 76.9 µM.

For the molecule `C=CCn1c(SCC(=O)Nc2ccc3c(c2)OCO3)nnc1-c1ccccc1O`, the Potency was inactive: > 76.9 µM.

Regarding `COc1ccccc1N1CCN(C(=O)C2CC=CCC2C(=O)O)CC1` (centres undefined), the Potency is inactive: > 76.9 µM.

As to `c1ccc2c(c1)OCC(c1nn3c(Cn4nnc5ccccc54)nnc3s1)O2` (centres undefined), the Potency is inactive: > 76.9 µM.

Turning to `CC(C(=O)NC1CCCC1)N(Cc1ccc2c(c1)OCO2)C(=O)c1snc(C(N)=O)c1N` (centres undefined), the Potency was inactive: > 76.9 µM.

Take `Cn1c(CNC(=O)Nc2ccccc2)nnc1SCc1ccccc1`: the Potency is inactive: > 76.9 µM.

With `c1ccc(COn2nnc3ccccc32)c(COn2nnc3ccccc32)c1`, the Potency is inactive: > 76.9 µM.

For the molecule `COCCNC(=O)c1c(N)n(-c2cccc(C)c2)c2nc3ccccc3nc12`, the Potency is inactive: > 76.9 µM.

Regarding `COc1cccc(C(=O)NCC(=O)N2CCC(C)CC2)c1`, the Potency is inactive: > 76.9 µM.

Take `Cn1c(NC(=O)c2cccs2)c(-c2cccs2)c(=O)c2ccccc21`: the Potency is inactive: > 76.9 µM.

`CCN(CC)C(=O)CSc1nnc(-c2cnccn2)n1-c1ccc(C)cc1`: the Potency is inactive: > 76.9 µM.

As for `Cc1cc(C)c2c(n1)nn1c(N3CCOCC3)cc(C)nc21`, the Potency was inactive: > 76.9 µM.

For the molecule `Cc1ccc(CC(=O)OCCNC(=O)c2cccnc2)cc1`, the Potency is inactive: > 76.9 µM.

With `CCn1c(Cc2ccccc2)nnc1SCC(=O)Nc1nccs1`, the Potency is inactive: > 76.9 µM.

Take `Cc1ccc(N2CC(C(=O)NC3=NCCS3)CC2=O)cc1C` (centres undefined): the Potency was inactive: > 76.9 µM.

On to `CCn1c(C)c(C(C)=O)c(NCc2ccccc2)nc1=S`, for which the Potency was inactive: > 76.9 µM.

As to `CC(=O)N(CN1C(=O)c2ccccc2C1=O)c1cccc(C)c1`, the Potency was inactive: > 76.9 µM.

For the molecule `COc1ccc(N2C(=O)C3CCCN3C2c2ccc(C)o2)cc1Cl` (centres undefined), the Potency was inactive: > 76.9 µM.

On to `COc1ccc(C2C(=O)N(C3CCCCC3)CC(=O)N2Cc2ccc3c(c2)OCO3)cc1` (centres undefined), for which the Potency is inactive: > 76.9 µM.

In the case of `CCOC(=O)CNC(=O)CSc1nnc(-c2ccco2)n1N`, the Potency was inactive: > 76.9 µM.

Consider `CCC(C(=O)N1CCOCC1)n1c(C(=O)OC)cc2occc21` (centres undefined), for which the Potency entry was “inactive”.

With `COC(=O)CSc1nnc(CNC(=O)Cc2ccccc2)n1-c1ccccc1OC`, the Potency was inactive: > 76.9 µM.

Take `CCCn1c(SCC(=O)c2ccc3c(c2)OCCO3)nc2c1c(=O)n(C)c(=O)n2C`: the Potency was inactive: > 76.9 µM.

Turning to `CCOC(=O)c1ccc(NS(=O)(=O)c2ccc3c(c2)CCCN3C(C)=O)cc1`, the Potency is inactive: > 76.9 µM.

For the molecule `Cc1ccc(S(=O)(=O)N2CCN(c3ncnc4c3cnn4-c3ccccc3)CC2)cc1`, the Potency was inactive: > 76.9 µM.

Regarding `COCCN1C(=O)c2ccccc2C(C(=O)NCC2CCCO2)C1c1c[nH]c2ccccc12` (centres undefined), the Potency was inactive: > 76.9 µM.

With `N#CC1=C(N)Oc2n[nH]c(CSc3ccccc3)c2C12C(=O)Nc1ccccc12` (centres undefined), the Potency was inactive: > 76.9 µM.

As for `COc1ccc(S(=O)(=O)N2CCC(C(=O)N3CCCC3)CC2)cc1`, the Potency is inactive: > 76.9 µM.

For `CN(C)CCN1C(=O)C(=O)/C(=C(/O)c2ccc(OCc3ccccc3)cc2)C1c1ccncc1` (centres undefined), the Potency is inactive: > 76.9 µM.

For `O=C(NC1CCCCC1)n1c(=O)oc2cc(S(=O)(=O)N3CCCCC3)ccc21`, the Potency is inactive: > 76.9 µM.

As for `CC(=O)N1CCc2cc(S(=O)(=O)NCCC(=O)NCCc3ccccc3)ccc21`, the Potency was inactive: > 76.9 µM.

On to `CCOC(=O)c1c(-n2cnnn2)sc(C)c1C`, for which the Potency was inactive: > 76.9 µM.

Regarding `O=C(C1CCCN(S(=O)(=O)c2cccs2)C1)N1CCc2ccccc2C1` (centres undefined), the Potency was inactive: > 76.9 µM.

`O=C(NCc1ccccn1)Nc1cccc(NC(=O)NCc2ccccn2)c1`: the Potency is inactive: > 76.9 µM.

Turning to `Cc1cc(NC(=O)c2cc(C)on2)no1`, the Potency was inactive: > 76.9 µM.

Consider `Cc1cc(C(=O)NC(C)c2ccc3c(c2)OCO3)cs1` (centres undefined), for which the Potency was inactive: > 76.9 µM.

As for `CC1CCN(c2oc(-c3cccc4ccccc34)nc2C#N)CC1`, the Potency was inactive: > 76.9 µM.

As for `COc1ccc(OCc2nn3c(-c4cccc(OC)c4)nnc3s2)cc1`, the Potency is inactive: > 76.9 µM.

As for `CCC(c1nnc(SCC(=O)N2CC3(C)CC2CC(C)(C)C3)o1)N(C)C` (centres undefined), the Potency was inactive: > 76.9 µM.

As to `C=C(C)Cn1c(=O)c(NC(=O)c2ccccc2)c2n(c1=S)CCC2`, the Potency was inactive: > 76.9 µM.

Consider `O=c1c2ccccc2nc(-c2ccco2)n1CCCn1ccnc1`, for which the Potency is inactive: > 76.9 µM.

For the molecule `N#Cc1cc(-c2ccccc2)nn1-c1ccccc1`, the Potency is inactive: > 76.9 µM.

As to `CCOC(=O)C1CCN(C(=O)CCCCn2c(=O)[nH]c3ccccc3c2=O)CC1`, the Potency is inactive: > 76.9 µM.

Regarding `CCC1Cc2c(nc3c4c(nc(N5CCOCC5)c(C#N)c24)NC(C)=N3)O1` (centres undefined), the Potency was inactive: > 76.9 µM.

`COc1ccc(NC(=O)Nc2ncn(Cc3cccc(C(F)(F)F)c3)n2)cc1OC`: the Potency was inactive: > 76.9 µM.

For the molecule `O=C1Nc2ccccc2C1(O)Cc1ccncc1` (centres undefined), the Potency was inactive: > 76.9 µM.

As to `O=C(/N=C1\NC(=O)C(F)(C(F)(F)F)S1)NC1CCCCC1` (centres undefined), the Potency is inactive: > 76.9 µM.

For `CC1(C)C(=O)C2(C(=O)NCc3ccccc3)CCC1C2` (centres undefined), the Potency is inactive: > 76.9 µM.

In the case of `CC[n+]1cc(-c2ccccc2)nc(N2CCOCC2)n1`, the Potency entry was “inactive”.

On to `CCOC(=O)NC1(C(F)(F)F)NC(=O)N(C2CCCCC2)C1=O` (centres undefined), for which the Potency was inactive: > 76.9 µM.

`COC(=O)CNS(=O)(=O)c1ccc(Cc2ccc(S(=O)(=O)NCC(=O)OC)cc2)cc1`: the Potency was inactive: > 76.9 µM.

As to `CCOc1ccc(N=C2SC(C(=O)O)CC(=O)N2C)cc1` (centres undefined), the Potency is inactive: > 76.9 µM.

On to `O=C(O)CNC(=O)CC12CC3CC(CC(C3)C1)C2`, for which the Potency is inactive: > 76.9 µM.

As for `CCOC(=O)CNC(=O)Cn1cnc2c(nnn2-c2ccc(C)cc2)c1=O`, the Potency is inactive: > 76.9 µM.

As for `C=CCn1c(SCC(=O)/C(C#N)=C(\C)N)nnc1C1CCCCC1`, the Potency was inactive: > 76.9 µM.

On to `O=C(CCNS(=O)(=O)c1cccc2nsnc12)NCCc1ccccc1`, for which the Potency was inactive: > 76.9 µM.

Turning to `Cc1cc(C)c2c(CN3CCN(C/C=C/c4ccccc4)CC3)cc(=O)oc2c1`, the Potency is inactive: > 76.9 µM.

`O=C(NCc1ccc(N2CCCC2=O)cc1)Nc1cccc(Cl)c1`: the Potency is inactive: > 76.9 µM.
